Reference: the supplement of paper PMC10126150
Sequences with one replicate were seen in a single cluster, so their values are uncertain.
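Note: ATP exposure 15 min at 22 °C before imaging.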

The sequences below were run on ATP (assay: switch fluorescence ratio, 500 uM ATP over buffer (Cy3 cluster intensity, sum of 5 cycles each) (fold (ratio)); higher = stronger signal-on switching upon ATP binding; sequences stand for … in TCGTCGGCAGCGTCAGATGTGTATAAGAGACAGTTTTTTTTTTTTTTTTTTTTTTTTT…TC). Details: aptamer strand: ATP DNA aptamer (quencher-CACCTGGGGGAGTATTGCGGAGGAAGG + anchor), 100 nM annealed; ATP concentration: 500 uM; one replicate.
Procedure, shortened: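 The fluorescence ratio divides summed target-cycle Cy3 intensity by summed buffer-cycle Cy3 intensity for each cluster and is averaged per switch-domain sequence. Cy3-labelled switching-strand clusters on a modified Illumina MiSeq flow-cell were annealed to 100 nM quencher-labelled ATP aptamer, then imaged in selection buffer and again after 15 min with 500 uM ATP at 22 °C. Five such cycles were run, with NaOH stripping and re-annealing between them, and clusters outside 100-1000 RFU were excluded.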
TTTGTTACA was tested, and the switch fluorescence ratio was 0.957.
Sequence TTTGTTACTG has a switch fluorescence ratio of 1.03.
TTTGTTCTAC was tested, and the switch fluorescence ratio was 1.12.
Work on TTTTAAACTA yielded a switch fluorescence ratio of 0.948.
TTTTAACGCG showed a switch fluorescence ratio of 1.03.
Sequence TTTTACAGGA has a switch fluorescence ratio of 0.998.
For TTTTACGATA, the switch fluorescence ratio was 1.11.
TTTTACGCAT showed a switch fluorescence ratio of 1.43.
Sequence TTTTAGCTAA has a switch fluorescence ratio of 1.03.
Sequence TTTTAGGGAC has a switch fluorescence ratio of 0.976.
TTTTATCATA showed a switch fluorescence ratio of 1.02.
TTTTATCTCT gave a switch fluorescence ratio of 1.01.
TTTTATGATA showed a switch fluorescence ratio of 0.983.
Sequence TTTTATTATA has a switch fluorescence ratio of 0.998.
TTTTATTGC gave a switch fluorescence ratio of 0.951.
Sequence TTTTCACAT has a switch fluorescence ratio of 0.996.
Sequence TTTTCACTCT has a switch fluorescence ratio of 1.01.
With TTTTCAGAGG the switch fluorescence ratio was 1.01.
With TTTTCCAACT the switch fluorescence ratio was 0.957.
In the case of TTTTCCCAG, the switch fluorescence ratio is reported as 1.12.
Work on TTTTCCCTT yielded a switch fluorescence ratio of 1.
Sequence TTTTCCTCTC has a switch fluorescence ratio of 1.06.
TTTTCGAACC showed a switch fluorescence ratio of 1.02.
TTTTCGAGTA gave a switch fluorescence ratio of 0.987.
With TTTTCGATTC the switch fluorescence ratio was 1.05.
TTTTCGTGAG gave a switch fluorescence ratio of 1.02.
Work on TTTTCTTATA yielded a switch fluorescence ratio of 0.999.
In the case of TTTTCTTGA, the switch fluorescence ratio is reported as 1.04.
TTTTGAAGA showed a switch fluorescence ratio of 1.01.
Work on TTTTGATCTG yielded a switch fluorescence ratio of 1.03.
TTTTGCACAT was tested, and the switch fluorescence ratio was 0.986.
TTTTGCG showed a switch fluorescence ratio of 0.976.
In the case of TTTTGCGTGG, the switch fluorescence ratio is reported as 0.992.
TTTTGCGTTG was tested, and the switch fluorescence ratio was 1.02.
In the case of TTTTGGCCCT, the switch fluorescence ratio is reported as 1.02.
Work on TTTTGGTATC yielded a switch fluorescence ratio of 0.991.
TTTTGGTGCC gave a switch fluorescence ratio of 1.1.
TTTTGGTTA showed a switch fluorescence ratio of 0.992.
TTTTGTGCCA was tested, and the switch fluorescence ratio was 0.994.
TTTTTACGAT was tested, and the switch fluorescence ratio was 1.04.
Work on TTTTTC yielded a switch fluorescence ratio of 0.983.
TTTTTCCAGC showed a switch fluorescence ratio of 0.993.
TTTTTCGACT showed a switch fluorescence ratio of 0.977.
TTTTTCGATG showed a switch fluorescence ratio of 1.01.
TTTTTGGAAG gave a switch fluorescence ratio of 0.985.
Sequence TTTTTGGTCA has a switch fluorescence ratio of 0.989.
For TTTTTTGCAC, the switch fluorescence ratio was 0.998.
